# The supplement of paper PMC9990464
# Structures can show the parent of a compound that is named as a salt. ± gives the standard deviation of the averaged measurements. The list shows a part of the results. Most values come without repeats; read them as rough.
# Legend:
# Experiment in all cases: area under viability curve (10 nM-1 µM), viability relative to solvent or trametinib-only control (AUC (arbitrary, % viability x concentration range)); higher = less growth inhibition (more viable cells)
# SJNB8 = conditions: 72 h compound exposure (96 h after seeding) h; trametinib co-treatment 0 µM
# Experimental: (§1)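 Four neuroblastoma cell lines (KCNR, SKNBE, SJNB8, SKNAS) were seeded in 384-well plates. At 24 h, 1 µM trametinib or DMSO was added, followed by library compounds at 10 nM, 100 nM and 1 µM. Viability was read by MTT at 96 h and normalised to solvent-treated cells (DMSO arm) or to trametinib-only cells (trametinib arm). The area under the 3-point viability curve was computed in GraphPad Prism; units are as given (approx. 100000 = no effect).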
# SKNAS = conditions: 72 h compound exposure (96 h after seeding) h
# Experimental: as §1
# SKNBE = conditions: 72 h compound exposure (96 h after seeding) h
# Experimental: as §1
# 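Note: KCNR is a neuroblastoma cell line carrying an ALK mutation, in this DMSO arm without trametinib, viability was normalised to solvent-treated cells.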
Compound,area under viability curve (SJNB8),area under viability curve (SKNAS; trametinib co-treatment 0 µM),area under viability curve (SKNAS; trametinib co-treatment 1 µM),area under viability curve (SKNBE; trametinib co-treatment 0 µM),area under viability curve (SKNBE; trametinib co-treatment 1 µM)
CNC(=O)c1ccccc1Sc1ccc2c(/C=C/c3ccccn3)n[nH]c2c1 [Axitinib],89000,99300,92300,83100,79600
COc1cc(C(=O)O)ccc1NC(=O)[C@@H]1N[C@@H](CC(C)(C)C)[C@](C#N)(c2ccc(Cl)cc2F)[C@H]1c1cccc(Cl)c1F [Idasanutlin],79500,101000,100000,96900,85000
CC1(C)CCC(c2ccc(Cl)cc2)=C(CN2CCN(c3ccc(C(=O)NS(=O)(=O)c4ccc(N[C@H](CCN5CCOCC5)CSc5ccccc5)c(S(=O)(=O)C(F)(F)F)c4)cc3)CC2)C1 [Navitoclax],88200 ± 3100,110600 ± 920,68800 ± 4500,94900 ± 12000,73900 ± 12000
O=NN(CCCl)C(=O)NCCCl [Carmustine],90800,83000,101000,108000,114000
O=C(NC1CCNCC1)c1n[nH]cc1NC(=O)c1c(Cl)cccc1Cl,98700,95700,73900,109000,85100
CCNC(=O)[C@@H]1CCCN1C(=O)[C@H](CCCNC(=N)N)NC(=O)[C@H](CC(C)C)NC(=O)[C@@H](CC(C)C)NC(=O)[C@H](Cc1ccc(O)cc1)NC(=O)[C@H](CO)NC(=O)[C@H](Cc1c[nH]c2ccccc12)NC(=O)[C@H](Cc1c[nH]cn1)NC(=O)[C@@H]1CCC(=O)N1 [Leuprolide acetate],97600,119000,96500,115000,99900
CC(=O)[O-].CC(=O)[O-].N.NC1CCCCC1.[Cl-].[Cl-].[Pt+4] [Satraplatin],85300,90900,93900,82200,70200
CC(C(=O)Nc1cccc(/N=C/c2c(O)ccc3ccccc23)c1)c1ccccc1 (stereo not given) [Salermide],85000,103000,99100,107000,110000
CCOC(=O)C1=CN(Cc2ccccc2)C=C(C(=O)OCC)C1c1ccccc1,81700,103000,99000,113000,102000
COC(=O)[C@]12CCC(C)(C)C[C@H]1[C@H]1C(=O)C=C3[C@@]4(C)C=C(C#N)C(=O)C(C)(C)[C@@H]4CC[C@@]3(C)[C@]1(C)CC2 [Bardoxolone methyl],54500,40700,75500,35200,33900
COc1cc2c(cc1OC)CN(CCc1ccc(NC(=O)c3cccc4c(=O)c5cccc(OC)c5[nH]c34)cc1)CC2 [Elacridar],111000,112000,102000,124000,133000
CC(C)C1O[C@H](CN)[C@@H](CN)O1.O=C([O-])CC(=O)[O-].[Pt+2] [Eptaplatin],83700,112000,106000,104000,93000
COc1cc2/c(=N/c3ccc(Br)cc3F)nc[nH]c2cc1OCC1CCN(C)CC1 [Vandetanib],69500,104000,91200,81200,93000
CCCCC(=O)OCC(=O)[C@]1(O)Cc2c(O)c3c(c(O)c2[C@@H](O[C@H]2C[C@H](NC(=O)C(F)(F)F)[C@H](O)[C@H](C)O2)C1)C(=O)c1c(OC)cccc1C3=O [Valrubicin],64100,59300,78500,83600,78800
CC(=O)O[C@@]12CO[C@@H]1C[C@H](O)[C@@]1(C)C(=O)[C@H](O)C3=C(C)[C@@H](OC(=O)[C@H](O)[C@@H](NC(=O)OC(C)(C)C)c4ccccc4)C[C@@](O)([C@@H](OC(=O)c4ccccc4)[C@H]21)C3(C)C [Docetaxel],21400,24300,18400,24100,9440
CC(C)(C)OC(=O)Nc1ccc(-c2cc(C(=O)NCCCCCCC(=O)NO)no2)cc1,70000,78500,100000,88800,97700
COc1cccc2c1C(=O)c1c(O)c3c(c(O)c1C2=O)C[C@@](O)(C(=O)CO)C[C@@H]3O[C@H]1C[C@H](N)[C@@H](O)[C@H](C)O1 [Epirubicin hydrochloride],67200,80300,67600,68600,54400

Compound,area under viability curve (SJNB8),area under viability curve (SKNAS; trametinib co-treatment 0 µM),area under viability curve (SKNAS; trametinib co-treatment 1 µM),area under viability curve (SKNBE; trametinib co-treatment 0 µM),area under viability curve (SKNBE; trametinib co-treatment 1 µM)
CC(C)(C)c1nc(-c2cccc(NS(=O)(=O)c3c(F)cccc3F)c2F)c(-c2ccnc(N)n2)s1 [Dabrafenib],111000,122000,104000,107000,95400
C[C@]12CC[C@H](O)CC1=CC[C@@H]1[C@@H]2CC[C@]2(C)C(c3cccnc3)=CC[C@@H]12 [Abiraterone],92000,124000,98900,106000,122000
CCCC(CCC)C(=O)NO [Valproic acid hydroxamate],86400,111000,95900,111000,97300
C[C@]1(c2nc3c(C(N)=O)cccc3[nH]2)CCCN1 [Veliparib],97900,86800,102000,110000,106000
Cn1cnc2c(F)c(Nc3ccc(Br)cc3Cl)c(C(=O)NOCCO)cc21 [Selumetinib],44300,58400,105000,91700,101000
Nc1cccc2c1CN(C1CCC(=O)NC1=O)C2=O (stereo not given) [Lenalidomide],107000,93800,98200,104000,99500
O=S(=O)(c1cccc2cnccc12)N1CCCNCC1 [Fasudil HCl],95100,107000,99700,107000,98400
CC(=O)Nc1ccc(C(=O)Nc2ccccc2N)cc1 [Tacedinaline],90800,117000,104000,106000,107000
CC1(C)CCC(CN2CCN(c3ccc(C(=O)NS(=O)(=O)c4ccc(NCC5CCOCC5)c([N+](=O)[O-])c4)c(Oc4cnc5[nH]ccc5c4)c3)CC2)=C(c2ccc(Cl)cc2)C1 [Venetoclax],78500,112000,66300,87800,89200
Nc1ccn([C@@H]2O[C@H](CO)[C@@H](O)C2(F)F)c(=O)n1 [Gemcitabine hydrochloride],43900,44800,43400,26000,11000
COc1cc2c(cc1OC)CN(CCc1ccc(NC(=O)c3cccc4c(=O)c5cccc(OC)c5[nH]c34)cc1)CC2 [Elacridar HCl],90600,86900,95500,107000,111000
CC(/C=C/C(=O)NO)=C\[C@@H](C)C(=O)c1ccc(N(C)C)cc1 [Trichostatin A],57800,34500,28900,36600,9610
CCN(CC)CCNC(=O)c1c(C)[nH]c(/C=C2\C(=O)Nc3ccc(F)cc32)c1C [Sunitinib],83800,102000,101000,97100,103000
Nc1c(O)cc(O)cc1C=Cc1ccc(O)cc1 [Aminoresveratrol sulfate],88000,103000,102000,86300,91900
CC(C)C(=O)SCCCCCCC(=O)Nc1nc(-c2ccccc2)cs1,84400,91700,103000,98200,93700
Nc1ncn([C@H]2C[C@H](O)[C@@H](CO)O2)c(=O)n1 [Decitabine],86000,72200,89500,94900,77900
